Assay results as given in the supplement of paper PMC10126150.
Values marked as one replicate rest on one cluster of the flow cell; about a third of the high ones do not repeat.

Test system: ATP
Test: switch fluorescence ratio, 500 uM ATP over buffer (Cy3 cluster intensity, sum of 5 cycles each) (fold (ratio)); higher = stronger signal-on switching upon ATP binding; sequences stand for … in TCGTCGGCAGCGTCAGATGTGTATAAGAGACAGTTTTTTTTTTTTTTTTTTTTTTTTT…TC
Settings: aptamer strand: ATP DNA aptamer (quencher-CACCTGGGGGAGTATTGCGGAGGAAGG + anchor), 100 nM annealed; ATP concentration: 500 uM; one replicate
Outline: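 Switching-strand clusters labelled with Cy3 on a modified Illumina MiSeq flow-cell were annealed to 100 nM quencher-labelled ATP aptamer, imaged in selection buffer, and re-imaged after 15 min with 500 uM ATP at 22 °C. This was done over five cycles with NaOH stripping and re-annealing in between. The fluorescence ratio is summed target-cycle over summed buffer-cycle Cy3 intensity per cluster, averaged per switch-domain sequence, excluding clusters outside 100-1000 RFU.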
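Further: ATP exposure 15 min at 22 °C before imaging.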

| Sequence | switch fluorescence ratio |
| --- | --- |
| GGTTTACGCC | 1.04 |
| GGTTTACGTT | 1.01 |
| GGTTTACTAC | 0.952 |
| GGTTTCATTA | 1.05 |
| GGTTTGACAG | 0.994 |
| GGTTTGAGCT | 0.965 |
| GGTTTGATAA | 0.998 |
| GGTTTGCCCT | 0.97 |
| GGTTTGTCAA | 1.01 |
| GGTTTTAATA | 0.987 |
| GGTTTTCACG | 1 |
| GGTTTTCGAT | 1.05 |
| GGTTTTGTCT | 0.844 |
| GTAAAAAAGA | 0.986 |
| GTAAAAAGGC | 1.02 |
| GTAAAAATAT | 1.15 |
| GTAAAAGATA | 1.01 |
| GTAAACAGGG | 0.987 |
| GTAAACGCTG | 0.924 |
| GTAAACTAGA | 0.951 |
| GTAAAGTGTG | 1.05 |
| GTAAATTGCG | 1 |
| GTAACAAGCC | 1.04 |
| GTAACATCTA | 1.02 |
| GTAACCTGTA | 1.28 |

| Sequence | switch fluorescence ratio |
| --- | --- |
| GTAACTGGTG | 1.12 |
| GTAAGAGGTG | 1.14 |
| GTAAGCCTAG | 1.02 |
| GTAAGCGCTG | 0.965 |
| GTAAGGAACG | 0.985 |
| GTAAGGGTCT | 1.29 |
| GTAAGTGTCC | 0.995 |
| GTAATCCGGT | 0.977 |
| GTAATGAGCC | 0.957 |
| GTAATTAAA | 1.04 |
| GTAATTCGAA | 1.01 |
| GTAATTGCGC | 0.996 |
| GTACAAAATA | 0.993 |
| GTACACACGA | 1.25 |
| GTACATTAGA | 1.01 |
| GTACCTATAG | 1.01 |
| GTACGAAATG | 1.05 |
| GTACGGAGTG | 1.03 |
| GTACGGGGGG | 1.01 |
| GTACGTAGTC | 1.01 |
| GTACTACATG | 1.01 |
| GTACTAGGAA | 0.994 |
| GTACTCATGG | 1.01 |
| GTACTGGGCT | 0.997 |
| GTACTGGTAC | 1.05 |

| Sequence | switch fluorescence ratio |
| --- | --- |
| GTACTTCC | 2.66 |
| GTAGAAGAAA | 0.968 |
| GTAGAATTGA | 1 |
| GTAGAATTTA | 0.969 |
| GTAGACCCGT | 0.99 |
| GTAGACGATC | 1 |
| GTAGAGGAGC | 0.984 |
| GTAGAGTGAC | 1.02 |
| GTAGATAATC | 1 |
| GTAGATGAAT | 1.02 |
| GTAGCCTGAC | 1.88 |
| GTAGCGGTCG | 1.02 |
| GTAGCGTTGC | 1.15 |
| GTAGCTCGTC | 0.954 |
| GTAGGCTGAC | 0.966 |
| GTAGGGCGTC | 1.02 |
| GTAGGGTTTG | 0.988 |
| GTAGTGACGG | 1 |
| GTAGTGAGG | 1.02 |
| GTAGTGCACG | 0.986 |
| GTAGTGTAGG | 1.03 |
| GTAGTGTCGT | 1.01 |
| GTAGTTACCC | 1.04 |
| GTAGTTAGAC | 1.22 |
| GTAGTTTATT | 0.981 |

| Sequence | switch fluorescence ratio |
| --- | --- |
| GTATAAGCG | 0.936 |
| GTATAGTGCC | 0.97 |
| GTATATGGAC | 1.04 |
| GTATCAGCGG | 0.982 |
| GTATCCCTGT | 0.977 |
| GTATCCGTGT | 0.962 |
| GTATCTGGTA | 0.991 |
| GTATGAAGTC | 0.997 |
| GTATGACAGG | 0.971 |
| GTATGACCCA | 1.01 |
| GTATGATATA | 0.995 |
| GTATGCATTT | 0.973 |
| GTATGCGTAG | 0.999 |
| GTATGGCTGC | 0.973 |
| GTATGGGGAG | 1.06 |
| GTATGTAGTT | 0.997 |
| GTATGTGGC | 0.927 |
| GTATGTTAGC | 0.986 |
| GTATTACTTG | 0.985 |
| GTATTCATGG | 0.949 |
| GTATTCTGCT | 1.02 |
| GTATTTCGAT | 0.985 |
| GTATTTTCAG | 0.945 |
| GTCAAATACG | 1.03 |
| GTCAATGATT | 0.971 |

| Sequence | switch fluorescence ratio |
| --- | --- |
| GTCAATGTC | 1.04 |
| GTCAATTATC | 1.02 |
| GTCACGGCTT | 1.04 |
| GTCACTCTAA | 1.04 |
| GTCAGAGTTT | 1.01 |
| GTCAGCGTCG | 0.991 |
| GTCAGGGGAA | 0.999 |
| GTCAGGTATT | 0.984 |
| GTCAGGTTAC | 1.04 |
| GTCATCTCAT | 0.999 |
| GTCATGCATC | 0.99 |
| GTCATTGACT | 0.982 |
| GTCATTGATA | 0.958 |
| GTCCCGCCTT | 1.06 |
| GTCCGCCAGA | 1.29 |
| GTCCGTAGGG | 1.03 |
| GTCCGTTGTG | 0.992 |
| GTCCTAAGAT | 0.987 |
| GTCCTGCGGG | 0.92 |
| GTCCTTCTAG | 1.01 |
| GTCGACGGCG | 0.948 |
| GTCGAGTTAT | 0.938 |
| GTCGATAACG | 0.983 |
| GTCGATACTG | 1.09 |
| GTCGCAATA | 2.66 |

| Sequence | switch fluorescence ratio |
| --- | --- |
| GTCGCGAGGC | 1.37 |
| GTCGCGCTGA | 0.981 |
| GTCGCTAAGC | 1.09 |
| GTCGCTACCC | 1.12 |
| GTCGCTGGCA | 1 |
| GTCGGAACCG | 0.938 |
| GTCGGAACGG | 1.05 |
| GTCGGAAGCG | 1.03 |
| GTCGGATAAA | 1.13 |
| GTCGGCCAGG | 1.26 |
| GTCGGCGGTG | 0.979 |
| GTCGGCGTCC | 0.966 |
| GTCGGGAGAC | 1.44 |
| GTCGGGGGTC | 0.977 |
| GTCGGGTGCT | 0.984 |
| GTCGGTATAG | 0.989 |
| GTCGGTCATA | 0.981 |
| GTCGGTGCAT | 0.974 |
| GTCGTTTCGG | 1.04 |
| GTCTAAAAGG | 1.05 |
| GTCTAAGTTT | 0.977 |
| GTCTACGAGG | 0.968 |
| GTCTCAGGTG | 1.03 |
| GTCTCATCGA | 1 |
| GTCTCTTATT | 1.01 |

| Sequence | switch fluorescence ratio |
| --- | --- |
| GTCTGCAGCT | 0.99 |
| GTCTGGTTGG | 1.03 |
| GTCTGTTACG | 1.05 |
| GTCTTCGCTC | 1.02 |
| GTCTTCTGGG | 1.03 |
| GTCTTTGGGG | 0.998 |
| GTGAAAAAT | 0.96 |
| GTGAAAAGTG | 0.99 |
| GTGAAATACC | 1.12 |
| GTGAACAAAC | 0.971 |
| GTGAAGAACC | 1.08 |
| GTGAAGCACG | 1.01 |
| GTGAATCGCA | 1.02 |
| GTGAATTCTG | 0.987 |
| GTGACACATG | 0.959 |
| GTGACCAGTA | 1.02 |
| GTGACTATTG | 1.07 |
| GTGACTTGTT | 1.01 |
| GTGAGAAGAT | 0.966 |
| GTGAGACCTC | 1.02 |
| GTGAGAGGAA | 1.02 |
| GTGAGCATAA | 1.07 |
| GTGAGCGCAC | 1.01 |
| GTGAGCTCTC | 1.01 |
| GTGAGGTAGT | 1 |

| Sequence | switch fluorescence ratio |
| --- | --- |
| GTGAGTCTTC | 0.933 |
| GTGAGTTCAT | 0.951 |
| GTGATAAATA | 1.03 |
| GTGATAAGGA | 0.972 |
| GTGATTCGCG | 1.01 |
| GTGCAATTGC | 1 |
| GTGCAGTTGT | 0.959 |
| GTGCCAGCCT | 1.05 |
| GTGCCCGTTT | 1.03 |
| GTGCCGATGC | 1.03 |
| GTGCCTCAAC | 1.03 |
| GTGCGCAGTG | 1.04 |
| GTGCGGGGGC | 1.03 |
| GTGCGTAGTT | 1.01 |
| GTGCGTGGGT | 1.02 |
| GTGCTAGACT | 1.01 |
| GTGCTATCTT | 0.955 |
| GTGGAACGGG | 0.98 |
| GTGGACAATT | 0.974 |
| GTGGAGGTAA | 1.01 |
| GTGGAGTGGT | 1.02 |
| GTGGCACCTC | 0.99 |
| GTGGCAGGGT | 0.918 |
| GTGGCAGGT | 0.994 |
| GTGGCCCCAA | 1.02 |
